The supplement of paper PMC3334620
In all, about 33,000 sequences were measured (“E-score (-0.5 to 0.5)”: median about -0.056, highest 2% from about 0.38 on). This is one part of the list.

Molecular target: Stb4 (UniProt P50104)
Assay: PBM E-score (8-mer binding enrichment) (E-score (-0.5 to 0.5)); higher = stronger / more preferred TF binding; most listed sequences are background and not binding sites
Settings: protein concentration: 200 nM; construct: GST-DNA-binding domain
Description: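 Universal 'all 10-mer' protein binding microarrays (Agilent AMADID 015681) probed with GST-tagged S. cerevisiae TFs (full-length or DBD) made by in vitro transcription/translation (PURExpress), about 100-200 nM. Bound TF was detected with fluorescent anti-GST. Each ungapped 8-mer (which stands for itself and its reverse complement) is scored by the PBM enrichment score (E-score), a modified Wilcoxon-Mann-Whitney statistic from -0.5 to +0.5, computed with the Universal PBM Analysis Suite. Scale: above 0.35 generally sequence-specific binding.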

Row | Sequence | PBM E-score
1 | TAAATGAA | -0.191
2 | ACTTAGGC | -0.129
3 | ACCCCGTC | 0.167
4 | CTGCCAAC | -0.1
5 | AGTTAAAC | -0.202
6 | AACCATGC | -0.00932
7 | AAAGTCAA | 0.00543
8 | ACGGCCAG | -0.124
9 | AGGGTTAC | -0.296
10 | CGGCCCCG | 0.203
11 | AAATCAAT | 0.0306
12 | GCAGGCAA | -0.192
13 | CTATCTAA | -0.0751
14 | CGATGCAC | -0.141
15 | AACAAGAT | 0.0176
16 | CAACCGCG | 0.138
17 | AGTCCAGG | -0.307
18 | CACTCTAG | -0.155
19 | CCCGGAGG | 0.206
20 | GATCACAC | -0.0425
21 | CGGTTCCA | 0.157
22 | GCTGTCAC | -0.0747
23 | AGGGTTTC | -0.0857
24 | AGAACGGG | 0.111
25 | CTGAAAAA | -0.0183

Row | Sequence | PBM E-score
26 | CCTTATTC | -0.103
27 | ACACCGCC | 0.0179
28 | ACAACGTA | -0.257
29 | TACTTCCA | -0.0188
30 | ATCCACAC | 0.0848
31 | AAGTGTCG | 0.0429
32 | CGTCGGTC | 0.224
33 | ACTAATCG | 0.144
34 | GAGCACGA | 0.0394
35 | CGCGCTAG | 0.0593
36 | GCCATACA | -0.146
37 | GATGATCA | 0.0157
38 | ATAGGAGA | -0.344
39 | GGCCGTAA | 0.075
40 | AGCTAGAT | -0.333
41 | CCCCTTGA | -0.0092
42 | TAGGTTCA | 0.0146
43 | GTTAGCTA | -0.0337
44 | GCAGACAC | 0.117
45 | ATCAAATG | 0.129
46 | CCGGAATA | 0.347
47 | GTTAAGCA | 0.11
48 | AGAATGCA | 0.0754
49 | CGGCATGC | 0.267
50 | ACTAGGGG | -0.0854

Row | Sequence | PBM E-score
51 | TGCCTACA | 0.0695
52 | GCGGGGAC | 0.174
53 | GTGGTTAA | -0.0363
54 | CGTCGTGC | -0.00663
55 | AGGTATAA | -0.056
56 | AATGTAAA | 0.0285
57 | CCTGGTCA | -0.209
58 | AGATCGTG | -0.278
59 | AAGGCCCA | -0.295
60 | CACGCATG | -0.209
61 | AATCATCT | -0.146
62 | ACCTATCA | -0.0596
63 | CTATACGA | -0.0414
64 | CACGGCGG | 0.058
65 | AAGATAAG | -0.117
66 | ACCTAGTA | -0.16
67 | TTCTGCAA | -0.0777
68 | ATATGCTC | 0.143
69 | ATACGCAT | 0.00311
70 | AAGCAGGA | 0.0512
71 | CCATATGG | -0.095
72 | TCTGCCAA | -0.326
73 | GGCCTTAA | -0.0387
74 | AGACGATA | -0.0915
75 | AATGCGGA | 0.285

Row | Sequence | PBM E-score
76 | GGGCTGTA | -0.139
77 | TACCGGTA | 0.149
78 | ATGTGACC | -0.0651
79 | ATGAGAGA | -0.171
80 | AACCAAGT | -0.215
81 | CTGAGTCA | -0.121
82 | CATACCGA | 0.287
83 | CCCCCAGC | -0.172
84 | AACCGAAA | 0.372
85 | AAGACTTA | -0.199
86 | AGTCTGCC | -0.12
87 | AGACCTGC | -0.287
88 | CGACTGGA | 0.052
89 | GGTCCCAA | -0.199
90 | CCGCGCTA | 0.168
91 | CTAGATAA | -0.167
92 | ATCCTCTG | -0.208
93 | AATTGCAT | -0.0004
94 | GCGATACA | -0.164
95 | ATGGCCCC | 0.132
96 | CGAAGTAA | 0.139
97 | ATATCAAT | -0.0398
98 | ACATCTGA | -0.259
99 | ATACGGCA | 0.169
100 | ACGTGTAT | -0.0814

Row | Sequence | PBM E-score
101 | AACACTAG | -0.295
102 | AGCTGCAT | -0.251
103 | CACCTACG | 0.0326
104 | ATACTAGA | -0.0822
105 | CGCGGGTA | 0.314
106 | AACGACTG | -0.203
107 | TTCCAAAA | -0.0492
108 | AAATTTCC | 0.154
109 | AGTAGGAT | -0.0655
110 | ATGAGTTA | -0.143
111 | CAGTGGCA | -0.144
112 | CAGAATTA | 0.051
113 | AGGGATGA | -0.0856
114 | CAGCAAGG | -0.241
115 | GAGGAAGA | -0.0876
116 | ACAAATGT | 0.00648
117 | GTTCCATA | -0.0371
118 | TATATCGA | 0.0248
119 | GAGCGGAC | 0.0302
120 | ATTCACTA | -0.107
121 | GTGTACCA | -0.285
122 | CCAGGACC | -0.0453
123 | CTCGCGTA | -0.0649
124 | GATGTGGC | -0.0114
125 | GACTTCTC | -0.15

Row | Sequence | PBM E-score
126 | CATTGTCA | -0.0657
127 | CGAAAGCA | 0.178
128 | AGGTAGAC | -0.154
129 | ATAGGGTC | -0.157
130 | CAACGTGG | -0.173
131 | CCAACCCC | -0.0947
132 | ACCATTAC | 0.0667
133 | TGCACCCA | -0.014
134 | GGACAACC | 0.0459
135 | CGAGGCCC | 0.0735
136 | CCCTGAGA | -0.232
137 | CCAACGTA | -0.333
138 | ATCCATGC | -0.0474
139 | GGTTTAGA | 0.0626
140 | AAGATCCG | 0.41
141 | ACTGTGCC | -0.0486
142 | CTAACGAC | -0.315
143 | TAGTATAA | -0.0253
144 | GCGTCCCA | -0.154
145 | AAAGCCCT | -0.106
146 | CGTAAGAC | -0.219
147 | ATCTGGGG | -0.235
148 | TGAAACAA | -0.124
149 | TACGCAGA | -0.0991
150 | AACCTCCG | 0.319

Row | Sequence | PBM E-score
151 | CATATCGC | -0.055
152 | GGGGGAAC | -0.107
153 | ACCTGCAC | -0.0938
154 | GAAATTGC | 0.051
155 | GGTTACAC | 0.0135
156 | AAACCACG | 0.0125
157 | CCCGAGAC | 0.412
158 | ACAGAGAC | -0.0392
159 | CGCTAAGC | -0.103
160 | AGGACTGA | -0.0328
161 | AGTCATTA | -0.295
162 | ACACTCGC | 0.0245
163 | GTAGGTCA | -0.177
164 | CGGTGGTA | 0.0785
165 | GCCAATCA | -0.243
166 | GAGGCAGC | -0.166
167 | GAGTTGGA | -0.0843
168 | GACATCCA | -0.00911
169 | GGATCTCA | 0.00508
170 | AATGCGGC | 0.0593
171 | CGTGATAC | -0.115
172 | GTATGGGA | 0.0312
